Test results from PMC9373805.
These are yes or no findings as the source states them, for the method shown. Binding seen in cells or lysates may run through a third protein. Some results given as binding are weak or reduced against the parent protein; the word gives no strength. For some assays here: Sequences can lack the tags named with a protein.

By UniProt entry, the sequences of proteins in these tests, tags left out. Where a name states a change or a piece, a line headed by the entry shows the natural chain unless it says otherwise. Residues count along the entry.
UniProt Q9Y2H9: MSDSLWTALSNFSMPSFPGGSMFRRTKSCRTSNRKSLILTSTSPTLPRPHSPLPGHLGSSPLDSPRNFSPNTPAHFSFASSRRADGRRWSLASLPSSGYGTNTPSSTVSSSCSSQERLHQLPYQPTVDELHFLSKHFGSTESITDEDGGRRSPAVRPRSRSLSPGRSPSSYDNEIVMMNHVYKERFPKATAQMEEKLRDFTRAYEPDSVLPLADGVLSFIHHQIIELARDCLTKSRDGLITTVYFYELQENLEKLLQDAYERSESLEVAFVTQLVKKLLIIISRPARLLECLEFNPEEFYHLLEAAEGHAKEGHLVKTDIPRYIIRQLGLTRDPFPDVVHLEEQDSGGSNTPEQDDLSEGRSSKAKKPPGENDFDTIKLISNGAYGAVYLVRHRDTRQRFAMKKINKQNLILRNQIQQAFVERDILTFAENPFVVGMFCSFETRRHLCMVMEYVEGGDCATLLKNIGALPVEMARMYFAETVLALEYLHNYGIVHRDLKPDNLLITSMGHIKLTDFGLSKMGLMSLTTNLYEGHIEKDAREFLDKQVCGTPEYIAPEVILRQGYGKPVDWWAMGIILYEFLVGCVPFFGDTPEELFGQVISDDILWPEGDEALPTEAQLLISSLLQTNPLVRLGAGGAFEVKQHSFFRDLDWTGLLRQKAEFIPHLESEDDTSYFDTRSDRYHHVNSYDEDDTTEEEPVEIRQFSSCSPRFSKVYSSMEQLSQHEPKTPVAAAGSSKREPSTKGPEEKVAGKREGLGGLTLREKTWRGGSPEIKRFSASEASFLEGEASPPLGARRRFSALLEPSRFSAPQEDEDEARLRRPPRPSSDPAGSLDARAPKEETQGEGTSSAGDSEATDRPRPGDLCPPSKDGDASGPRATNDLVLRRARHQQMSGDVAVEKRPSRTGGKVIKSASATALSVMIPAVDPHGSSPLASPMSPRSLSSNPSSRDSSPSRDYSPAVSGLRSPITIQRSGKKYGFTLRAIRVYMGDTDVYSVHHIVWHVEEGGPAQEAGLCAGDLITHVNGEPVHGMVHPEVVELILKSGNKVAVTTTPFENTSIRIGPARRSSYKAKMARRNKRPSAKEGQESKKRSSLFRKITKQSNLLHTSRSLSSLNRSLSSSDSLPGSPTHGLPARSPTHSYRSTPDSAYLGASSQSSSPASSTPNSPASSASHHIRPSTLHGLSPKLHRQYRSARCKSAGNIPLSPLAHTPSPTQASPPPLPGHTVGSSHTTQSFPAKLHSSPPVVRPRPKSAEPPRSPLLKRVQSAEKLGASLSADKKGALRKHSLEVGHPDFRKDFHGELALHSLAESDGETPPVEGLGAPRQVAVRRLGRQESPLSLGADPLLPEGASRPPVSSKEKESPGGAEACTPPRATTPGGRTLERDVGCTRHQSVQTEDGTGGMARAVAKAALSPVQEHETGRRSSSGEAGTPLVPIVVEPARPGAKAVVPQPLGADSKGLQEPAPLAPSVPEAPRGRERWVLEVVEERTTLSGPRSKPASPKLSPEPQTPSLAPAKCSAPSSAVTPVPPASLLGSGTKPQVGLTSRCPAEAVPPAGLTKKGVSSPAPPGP
MAST1 truncated mutant MTM1 (1-832 aa): residues 1-832 of Q9Y2H9
MAST1 truncated mutant MTM2 (833-1570 aa): residues 833-1570 of Q9Y2H9
MAST1 truncated mutant MTM3 (1118-1465 aa): residues 1118-1465 of Q9Y2H9
UniProt Q9UM11: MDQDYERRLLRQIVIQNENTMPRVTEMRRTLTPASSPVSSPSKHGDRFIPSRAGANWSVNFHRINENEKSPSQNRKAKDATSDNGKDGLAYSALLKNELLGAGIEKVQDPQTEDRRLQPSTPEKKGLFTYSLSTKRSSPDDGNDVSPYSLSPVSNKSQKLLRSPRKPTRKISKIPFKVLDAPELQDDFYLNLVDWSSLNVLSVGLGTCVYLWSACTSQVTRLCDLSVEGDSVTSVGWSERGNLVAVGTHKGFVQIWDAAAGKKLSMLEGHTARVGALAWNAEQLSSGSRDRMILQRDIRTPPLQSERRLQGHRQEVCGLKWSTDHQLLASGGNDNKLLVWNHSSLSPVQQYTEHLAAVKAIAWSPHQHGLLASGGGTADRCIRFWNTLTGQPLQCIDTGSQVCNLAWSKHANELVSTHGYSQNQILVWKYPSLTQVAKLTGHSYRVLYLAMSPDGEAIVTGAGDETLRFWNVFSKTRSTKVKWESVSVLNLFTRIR
UniProt Q93008: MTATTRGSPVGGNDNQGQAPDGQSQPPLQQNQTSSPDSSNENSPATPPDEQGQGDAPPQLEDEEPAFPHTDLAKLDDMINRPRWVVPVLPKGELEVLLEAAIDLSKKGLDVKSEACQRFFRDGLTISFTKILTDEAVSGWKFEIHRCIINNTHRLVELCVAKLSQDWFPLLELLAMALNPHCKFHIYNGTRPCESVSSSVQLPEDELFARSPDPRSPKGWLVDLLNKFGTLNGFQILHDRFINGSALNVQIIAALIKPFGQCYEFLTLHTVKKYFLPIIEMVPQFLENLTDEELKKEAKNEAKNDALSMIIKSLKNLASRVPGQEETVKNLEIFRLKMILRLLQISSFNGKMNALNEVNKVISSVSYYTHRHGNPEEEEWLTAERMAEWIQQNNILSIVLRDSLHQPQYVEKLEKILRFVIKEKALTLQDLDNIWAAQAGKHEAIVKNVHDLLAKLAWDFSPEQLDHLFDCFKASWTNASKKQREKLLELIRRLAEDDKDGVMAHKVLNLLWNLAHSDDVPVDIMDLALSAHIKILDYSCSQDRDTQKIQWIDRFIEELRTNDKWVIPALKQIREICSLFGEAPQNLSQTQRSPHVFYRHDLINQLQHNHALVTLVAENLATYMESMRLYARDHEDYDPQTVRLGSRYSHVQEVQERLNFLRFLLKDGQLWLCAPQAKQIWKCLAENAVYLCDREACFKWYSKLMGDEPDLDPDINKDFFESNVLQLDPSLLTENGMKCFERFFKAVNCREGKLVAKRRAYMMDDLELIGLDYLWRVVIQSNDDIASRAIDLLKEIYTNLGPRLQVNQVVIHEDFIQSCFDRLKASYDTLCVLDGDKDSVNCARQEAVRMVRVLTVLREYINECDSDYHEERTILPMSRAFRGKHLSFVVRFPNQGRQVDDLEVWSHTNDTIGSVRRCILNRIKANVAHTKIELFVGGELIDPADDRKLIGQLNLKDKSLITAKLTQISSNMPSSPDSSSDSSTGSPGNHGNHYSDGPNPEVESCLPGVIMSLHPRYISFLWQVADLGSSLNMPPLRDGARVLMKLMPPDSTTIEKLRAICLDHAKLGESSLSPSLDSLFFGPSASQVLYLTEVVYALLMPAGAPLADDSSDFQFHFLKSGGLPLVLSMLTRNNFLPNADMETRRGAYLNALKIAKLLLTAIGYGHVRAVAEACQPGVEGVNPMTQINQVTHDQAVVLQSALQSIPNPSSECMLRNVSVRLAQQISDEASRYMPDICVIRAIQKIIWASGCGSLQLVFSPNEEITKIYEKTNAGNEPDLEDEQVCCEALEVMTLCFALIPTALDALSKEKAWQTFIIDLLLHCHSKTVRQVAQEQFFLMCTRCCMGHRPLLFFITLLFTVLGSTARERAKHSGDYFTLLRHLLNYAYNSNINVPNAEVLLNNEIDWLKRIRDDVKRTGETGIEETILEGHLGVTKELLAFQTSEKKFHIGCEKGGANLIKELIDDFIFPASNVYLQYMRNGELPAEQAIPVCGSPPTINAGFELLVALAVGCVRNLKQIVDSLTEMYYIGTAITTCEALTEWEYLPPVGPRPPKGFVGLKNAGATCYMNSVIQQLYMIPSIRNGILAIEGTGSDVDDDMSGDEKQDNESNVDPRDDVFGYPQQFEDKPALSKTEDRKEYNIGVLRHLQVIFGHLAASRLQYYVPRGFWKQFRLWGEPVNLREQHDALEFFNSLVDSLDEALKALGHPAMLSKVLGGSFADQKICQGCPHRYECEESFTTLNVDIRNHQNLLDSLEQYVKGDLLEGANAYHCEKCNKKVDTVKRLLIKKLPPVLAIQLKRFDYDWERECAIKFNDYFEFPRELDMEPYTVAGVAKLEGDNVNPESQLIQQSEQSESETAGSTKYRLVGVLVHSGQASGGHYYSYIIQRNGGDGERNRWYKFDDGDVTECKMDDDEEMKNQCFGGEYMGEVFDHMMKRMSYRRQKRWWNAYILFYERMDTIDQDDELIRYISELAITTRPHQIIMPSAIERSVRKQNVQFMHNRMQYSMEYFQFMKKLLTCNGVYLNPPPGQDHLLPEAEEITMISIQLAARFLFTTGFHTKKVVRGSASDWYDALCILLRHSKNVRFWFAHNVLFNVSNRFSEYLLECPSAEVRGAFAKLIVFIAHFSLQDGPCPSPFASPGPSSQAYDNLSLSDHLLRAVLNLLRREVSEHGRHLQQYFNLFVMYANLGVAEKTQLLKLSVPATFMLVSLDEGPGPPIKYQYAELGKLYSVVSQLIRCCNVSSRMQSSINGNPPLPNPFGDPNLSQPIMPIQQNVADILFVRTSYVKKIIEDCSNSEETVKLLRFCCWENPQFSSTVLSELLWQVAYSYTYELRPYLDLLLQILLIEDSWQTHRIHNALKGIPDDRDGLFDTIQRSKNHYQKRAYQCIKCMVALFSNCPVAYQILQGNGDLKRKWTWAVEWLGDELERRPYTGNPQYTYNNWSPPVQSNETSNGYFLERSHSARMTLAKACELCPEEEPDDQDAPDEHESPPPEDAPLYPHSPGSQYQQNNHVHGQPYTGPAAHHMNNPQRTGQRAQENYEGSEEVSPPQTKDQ

Legend:
[1] = target: endogenous MAST1 (human (endogenous in HeLa)) (UniProt Q9Y2H9); experiment: co-IP; endogenous USP9X and MAST1; cell line not stated; lysates immunoprecipitated and immunoblotted with the indicated antibodies
[2] = target: Myc-MAST1 (microtubule-associated serine/threonine-protein kinase 1, full length) (human) (UniProt Q9Y2H9); experiment: co-IP; mapping with truncated mutants: Flag- and Myc-tagged constructs co-expressed (cell line not stated); IP lysis buffer with 150 mM NaCl, 1% NP-40; Western blot with the indicated antibodies
[3] = target: endogenous MAST1 (human (endogenous in HeLa)) (UniProt Q9Y2H9); experiment: co-IP; endogenous proteins of HeLa cells, precipitated with specific antibodies against either partner; IP lysis buffer with 150 mM NaCl, 1% NP-40; for USP1-MAST1 also after MLN7243 (10 µM) or PR-619 (20 µM) for 1 h, which reduced the interaction against DMSO
[4] = target: endogenous MAST1 (human (endogenous in HeLa)) (UniProt Q9Y2H9); experiment: proximity ligation; Duolink in situ PLA on fixed cells with primary antibodies against both endogenous proteins; HeLa cells by the legends (A549 by the methods); no dots with single antibodies
[5] = target: Myc-MAST1 (microtubule-associated serine/threonine-protein kinase 1, full length) (human) (UniProt Q9Y2H9); experiment: co-IP; Flag- and Myc-tagged full-length proteins co-transfected into HEK293 cells; lysed 48 h after transfection in IP lysis buffer (25 mM Tris-HCl pH 7.4, 150 mM NaCl, 1 mM EDTA, 1% NP-40, 5% glycerol); antibody overnight at 4 °C, protein agarose beads; Western blot
[6] = target: MAST1 truncated mutant MTM2 (833-1570 aa) (human) (UniProt Q9Y2H9); experiment: co-IP; mapping with truncated mutants: Flag- and Myc-tagged constructs co-expressed (cell line not stated); IP lysis buffer with 150 mM NaCl, 1% NP-40; Western blot with the indicated antibodies
[7] = target: MAST1 truncated mutant MTM3 (1118-1465 aa) (human) (UniProt Q9Y2H9); experiment: as above
[8] = target: MAST1 truncated mutant MTM1 (1-832 aa) (human) (UniProt Q9Y2H9); experiment: as above
[9] = target: Flag-Cdh1 (UniProt Q9UM11); experiment: co-IP; Flag- and Myc-tagged full-length proteins co-transfected into HEK293 cells; lysed 48 h after transfection in IP lysis buffer (25 mM Tris-HCl pH 7.4, 150 mM NaCl, 1 mM EDTA, 1% NP-40, 5% glycerol); antibody overnight at 4 °C, protein agarose beads; Western blot
[10] = target: T1, Flag-USP1 (UniProt O94782); experiment: as above
T1 sequence: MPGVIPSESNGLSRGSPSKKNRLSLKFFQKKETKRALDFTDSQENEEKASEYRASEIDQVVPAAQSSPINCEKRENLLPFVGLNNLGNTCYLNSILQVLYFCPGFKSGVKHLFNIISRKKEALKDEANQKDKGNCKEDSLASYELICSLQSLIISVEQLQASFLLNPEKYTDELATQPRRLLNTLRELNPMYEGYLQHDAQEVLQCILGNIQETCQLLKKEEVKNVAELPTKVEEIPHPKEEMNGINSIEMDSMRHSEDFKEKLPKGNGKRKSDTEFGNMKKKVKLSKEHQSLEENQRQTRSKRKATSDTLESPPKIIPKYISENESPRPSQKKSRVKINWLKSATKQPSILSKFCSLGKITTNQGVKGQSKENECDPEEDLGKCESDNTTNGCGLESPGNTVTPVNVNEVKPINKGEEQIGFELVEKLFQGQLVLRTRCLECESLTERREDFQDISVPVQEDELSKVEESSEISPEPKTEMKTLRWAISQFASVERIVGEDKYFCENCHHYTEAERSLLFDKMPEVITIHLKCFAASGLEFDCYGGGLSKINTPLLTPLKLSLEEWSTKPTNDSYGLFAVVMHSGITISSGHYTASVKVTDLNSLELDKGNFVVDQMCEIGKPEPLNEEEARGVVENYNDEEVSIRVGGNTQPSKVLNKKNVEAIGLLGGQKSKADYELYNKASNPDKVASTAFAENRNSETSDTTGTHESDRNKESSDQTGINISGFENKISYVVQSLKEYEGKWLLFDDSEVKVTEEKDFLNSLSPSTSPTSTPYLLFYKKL

[11] = target: endogenous Cdh1 (E3 ligase) (human (endogenous in HeLa)) (UniProt Q9UM11); experiment: co-IP; endogenous proteins of HeLa cells, precipitated with specific antibodies against either partner; IP lysis buffer with 150 mM NaCl, 1% NP-40; for USP1-MAST1 also after MLN7243 (10 µM) or PR-619 (20 µM) for 1 h, which reduced the interaction against DMSO
[12] = target: T2, endogenous USP1 (human (endogenous in HeLa)) (UniProt O94782); experiment: as above
T2 sequence: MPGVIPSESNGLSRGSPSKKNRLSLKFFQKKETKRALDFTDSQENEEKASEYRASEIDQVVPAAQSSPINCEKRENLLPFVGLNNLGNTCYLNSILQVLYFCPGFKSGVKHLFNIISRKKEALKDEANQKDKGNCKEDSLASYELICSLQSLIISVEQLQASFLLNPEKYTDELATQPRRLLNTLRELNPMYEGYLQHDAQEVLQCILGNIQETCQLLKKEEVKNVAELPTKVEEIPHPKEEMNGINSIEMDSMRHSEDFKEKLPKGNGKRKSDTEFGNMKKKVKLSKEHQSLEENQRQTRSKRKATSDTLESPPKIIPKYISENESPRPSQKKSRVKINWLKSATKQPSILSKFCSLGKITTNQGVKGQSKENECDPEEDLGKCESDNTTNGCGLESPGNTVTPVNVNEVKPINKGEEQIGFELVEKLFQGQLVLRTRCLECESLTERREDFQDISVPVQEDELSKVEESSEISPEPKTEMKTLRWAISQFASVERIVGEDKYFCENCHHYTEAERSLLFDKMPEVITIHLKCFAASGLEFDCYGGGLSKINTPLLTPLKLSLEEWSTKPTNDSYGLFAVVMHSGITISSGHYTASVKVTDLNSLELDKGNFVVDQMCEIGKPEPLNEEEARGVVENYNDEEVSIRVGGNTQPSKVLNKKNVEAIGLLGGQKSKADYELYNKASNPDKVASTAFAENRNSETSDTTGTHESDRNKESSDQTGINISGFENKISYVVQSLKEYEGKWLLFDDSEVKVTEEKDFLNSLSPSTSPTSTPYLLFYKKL

[13] = target: Myc-MAST1 (microtubule-associated serine/threonine-protein kinase 1, full length) (human) (UniProt Q9Y2H9); experiment: co-IP; mapping with truncated mutants: Flag- and Myc-tagged constructs co-expressed (cell line not stated); IP lysis buffer with 150 mM NaCl, 1% NP-40; Western blot with the indicated antibodies; remark: listed apart in the source
[14] = target: Myc-MAST1 (microtubule-associated serine/threonine-protein kinase 1, full length) (human) (UniProt Q9Y2H9); experiment: co-IP; Flag- and Myc-tagged full-length proteins co-transfected into HEK293 cells; lysed 48 h after transfection in IP lysis buffer (25 mM Tris-HCl pH 7.4, 150 mM NaCl, 1 mM EDTA, 1% NP-40, 5% glycerol); antibody overnight at 4 °C, protein agarose beads; Western blot; remark: listed apart in the source

For “endogenous USP9X (from UniProt Q93008 1-2554) (enzyme)”, the binding [1] was “binds”.

With “Cdh1 truncated mutant CTM2 (156-496 aa) (from UniProt Q9UM11 156-496) (domain or fragment)” the binding [2] was “binds”.

With “endogenous Cdh1 (E3 ligase) (from UniProt Q9UM11 1-496)” the binding [3] was “binds” and the binding [4] was “binds”.

For Flag-Cdh1 (from UniProt Q9UM11 1-496), the binding [5] was “binds”, the binding [6] was “binds” and the binding [7] was “no binding”. The binding [8] was “no binding”.

In the case of “Myc-MAST1 (microtubule-associated serine/threonine-protein kinase 1, full length) (from UniProt Q9Y2H9 1-1570)”, the binding [9] is reported as “binds” and the binding [10] is reported as “binds”.

With “endogenous MAST1 (from UniProt Q9Y2H9 1-1570)” the binding [11] was “binds” and the binding [12] was “binds”.

For “Cdh1 truncated mutant CTM1 (1-155 aa) (from UniProt Q9UM11 1-155) (domain or fragment)”, the binding [2] was “no binding”.

B1: USP1 truncated mutant UTM3 (201-785 aa) (domain or fragment, UniProt O94782 201-785)
chain: QEVLQCILGNIQETCQLLKKEEVKNVAELPTKVEEIPHPKEEMNGINSIEMDSMRHSEDFKEKLPKGNGKRKSDTEFGNMKKKVKLSKEHQSLEENQRQTRSKRKATSDTLESPPKIIPKYISENESPRPSQKKSRVKINWLKSATKQPSILSKFCSLGKITTNQGVKGQSKENECDPEEDLGKCESDNTTNGCGLESPGNTVTPVNVNEVKPINKGEEQIGFELVEKLFQGQLVLRTRCLECESLTERREDFQDISVPVQEDELSKVEESSEISPEPKTEMKTLRWAISQFASVERIVGEDKYFCENCHHYTEAERSLLFDKMPEVITIHLKCFAASGLEFDCYGGGLSKINTPLLTPLKLSLEEWSTKPTNDSYGLFAVVMHSGITISSGHYTASVKVTDLNSLELDKGNFVVDQMCEIGKPEPLNEEEARGVVENYNDEEVSIRVGGNTQPSKVLNKKNVEAIGLLGGQKSKADYELYNKASNPDKVASTAFAENRNSETSDTTGTHESDRNKESSDQTGINISGFENKISYVVQSLKEYEGKWLLFDDSEVKVTEEKDFLNSLSPSTSPTSTPYLLFYKKL
For B1, the binding [13] was “binds”.

B2: Flag-USP44 (enzyme, UniProt Q9H0E7 1-712)
chain: MLAMDTCKHVGQLQLAQDHSSLNPQKWHCVDCNTTESIWACLSCSHVACGRYIEEHALKHFQESSHPVALEVNEMYVFCYLCDDYVLNDNTTGDLKLLRRTLSAIKSQNYHCTTRSGRFLRSMGTGDDSYFLHDGAQSLLQSEDQLYTALWHRRRILMGKIFRTWFEQSPIGRKKQEEPFQEKIVVKREVKKRRQELEYQVKAELESMPPRKSLRLQGLAQSTIIEIVSVQVPAQTPASPAKDKVLSTSENEISQKVSDSSVKRRPIVTPGVTGLRNLGNTCYMNSVLQVLSHLLIFRQCFLKLDLNQWLAMTASEKTRSCKHPPVTDTVVYQMNECQEKDTGFVCSRQSSLSSGLSGGASKGRKMELIQPKEPTSQYISLCHELHTLFQVMWSGKWALVSPFAMLHSVWRLIPAFRGYAQQDAQEFLCELLDKIQRELETTGTSLPALIPTSQRKLIKQVLNVVNNIFHGQLLSQVTCLACDNKSNTIEPFWDLSLEFPERYQCSGKDIASQPCLVTEMLAKFTETEALEGKIYVCDQCNSKRRRFSSKPVVLTEAQKQLMICHLPQVLRLHLKRFRWSGRNNREKIGVHVGFEEILNMEPYCCRETLKSLRPECFIYDLSAVVMHHGKGFGSGHYTAYCYNSEGGFWVHCNDSKLSMCTMDEVCKAQAYILFYTQRVTENGHSKLLPPELLLGSQHPNEDADTSSNEILS
In the case of B2, the binding [14] is reported as “binds”.

B3: USP1 truncated mutant UTM2 (401-785 aa) (domain or fragment, UniProt O94782 401-785)
chain: NTVTPVNVNEVKPINKGEEQIGFELVEKLFQGQLVLRTRCLECESLTERREDFQDISVPVQEDELSKVEESSEISPEPKTEMKTLRWAISQFASVERIVGEDKYFCENCHHYTEAERSLLFDKMPEVITIHLKCFAASGLEFDCYGGGLSKINTPLLTPLKLSLEEWSTKPTNDSYGLFAVVMHSGITISSGHYTASVKVTDLNSLELDKGNFVVDQMCEIGKPEPLNEEEARGVVENYNDEEVSIRVGGNTQPSKVLNKKNVEAIGLLGGQKSKADYELYNKASNPDKVASTAFAENRNSETSDTTGTHESDRNKESSDQTGINISGFENKISYVVQSLKEYEGKWLLFDDSEVKVTEEKDFLNSLSPSTSPTSTPYLLFYKKL
In the case of B3, the binding [13] is reported as “binds”.

B4: USP1 truncated mutant UTM1 (1-400 aa) (domain or fragment, UniProt O94782 1-400)
chain: MPGVIPSESNGLSRGSPSKKNRLSLKFFQKKETKRALDFTDSQENEEKASEYRASEIDQVVPAAQSSPINCEKRENLLPFVGLNNLGNTCYLNSILQVLYFCPGFKSGVKHLFNIISRKKEALKDEANQKDKGNCKEDSLASYELICSLQSLIISVEQLQASFLLNPEKYTDELATQPRRLLNTLRELNPMYEGYLQHDAQEVLQCILGNIQETCQLLKKEEVKNVAELPTKVEEIPHPKEEMNGINSIEMDSMRHSEDFKEKLPKGNGKRKSDTEFGNMKKKVKLSKEHQSLEENQRQTRSKRKATSDTLESPPKIIPKYISENESPRPSQKKSRVKINWLKSATKQPSILSKFCSLGKITTNQGVKGQSKENECDPEEDLGKCESDNTTNGCGLESPG
In the case of B4, the binding [13] is reported as “no binding”.
